The subject of this test is opioid dependent subjects. To be noted: naloxone 0.1 and 0.2 mg added to 0.75 mg buprenorphine, intravenously.

For `C=CCN1CC[C@]23c4c5ccc(O)c4O[C@H]2C(=O)CC[C@@]3(O)[C@H]1C5` [naloxone], the abuse deterrent effect entry is reported as “provide an abuse deterrent effect”.

Values taken from US8703177B2, “Abuse-resistant mucoadhesive devices for delivery of buprenorphine” (BioDelivery Sciences International, Inc., priority 2011, dated 2014).
